Variants at the background level are over-represented here.
B1: TPR 5TU (parent)
chain: GGAUCUUCUCGAUCUAACAAAAAAGACAAAUCUGCCACAAAGCUUGAGAGCAUCUUCGGAUGCAGAGGCGGCAGCCUUCGGUGGCGCGAUAGCGCCAACGUUCUCAACUAUGACACGCAAAACGCGUGCUCCGUUGAAUGGAGUUUAUCAUG

Variants of: B1
Assay: polymerase ribozyme fitness, log enrichment relative to wild type (log ratio); higher = more active; in vitro selection for triplet polymerase activity
Summary of the method: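 Input and output libraries were sequenced on Illumina after a single in vitro selection round, run in triplicate on PCR-built, transcribed mutant libraries of each subunit of a heterodimeric triplet polymerase ribozyme. Selection annealed libraries to a biotinylated primer, the partner subunit and triplets, incubated them frozen at −7 °C, then gel-excised extended constructs for streptavidin-bead capture and RT-PCR. Genotypes with ≥10 input reads and ≥1 read per output were kept. Fitness is the logarithm, taken in base 2, of genotype enrichment divided by wild-type enrichment, using inverse-variance-weighted replicate averages.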

| Variant | polymerase ribozyme fitness (log ratio) |
| --- | --- |
| C51G G94U U148G | ≤ -4.2 |
| C51A C93U | -2.22 |
| C51U U55A A64C G65C C95A C99A C114A | ≤ -4.2 |
| G50U U61A C93G C105U A107G | ≤ -4.2 |
| G50C U56A G88C A120G | ≤ -4.2 |
| C51G G62U G92A C96A | ≤ -4.2 |
| G50U G74U | ≤ -4.2 |
| G50C G59U C87U C116A G140U | ≤ -4.2 |
| G50C G83C G88U U146A | ≤ -4.2 |
| G50U C72A A89C G92A C129A A137G A150U | ≤ -4.2 |
| G50C G86A | ≤ -4.2 |
| C51A G81A A147G U148G | ≤ -4.2 |
| G50C G71U A97U | ≤ -4.2 |
| C51G A66G G83C C96A | ≤ -4.2 |
| C51U G83A C105G A107C G117A | ≤ -4.2 |
| C51G A91G U101G A147C | ≤ -4.2 |
| C51U C75A U144A U146C | ≤ -4.2 |
| G50C U109G A113G A120C U130G | ≤ -4.2 |
| C51G G80A G84U G140C | ≤ -4.2 |
| C51U C87A G94C | ≤ -4.2 |
| A52C G71C | ≤ -4.2 |

| Variant | polymerase ribozyme fitness (log ratio) |
| --- | --- |
| G50U U78A A91C | ≤ -4.2 |
| G50C C76U U90A C93U U104G U144C | ≤ -4.2 |
| G50C C79A U90G U148G | ≤ -4.2 |
| G50C G80A C85U C87U C108U | ≤ -4.2 |
| C51A C72A G80U U146C | ≤ -4.2 |
| C51G A91U U104G | ≤ -4.2 |
| C51G U53G U56A C96U | ≤ -4.2 |
| C51G G70A G92U C99G G126A | ≤ -4.2 |
| G50U U55A G126U | -0.316 |
| C51A C57U G68U G92C A150U | ≤ -4.2 |
| C51G G83A G86A C95G G141C C149G | ≤ -4.2 |
| G50C G70C C72U C95A A121U | ≤ -4.2 |
| C51U C103A | -1.29 |
| G50C G133U | ≤ -4.2 |
| C51U C103A A121C | -1 |
| A52C G80C C108G A122G G140U | ≤ -4.2 |
| G50U G65A A91C A121G G128A A137U | ≤ -4.2 |
| A52C C85U G92A | ≤ -4.2 |
| G50C U78A C85U | ≤ -4.2 |
| A52C | -0.883 |
| C51A U55G C95U C105A G117U | ≤ -4.2 |

| Variant | polymerase ribozyme fitness (log ratio) |
| --- | --- |
| A52C A64C A89U C96G | ≤ -4.2 |
| C51G C79U C87U A115G | ≤ -4.2 |
| G50C U55C C96G C105G G124A U135A | ≤ -4.2 |
| G50C C87A C114G A150C | ≤ -4.2 |
| G50U C87A | ≤ -4.2 |
| G50C G62A G65A U77G U82G C114U C123G G141A U144C | ≤ -4.2 |
| G50U C87U C114A | -3.78 |
| A52C A73C G88U A97U U102G G117U U139G | ≤ -4.2 |
| C51U U53G C93G U127C | ≤ -4.2 |
| C51U A73U U78G G84A G126U | ≤ -4.2 |
| A52C C87A C93A U109G | ≤ -4.2 |
| C51A C69U C75U C87G C93G U139A | ≤ -4.2 |
| C51U U55A G70U C79A G81C C87A G133U | ≤ -4.2 |
| C51A U55A C57G G92C C93A G133U U144G | ≤ -4.2 |
| C51A U56A U78A G83C A97U G126A | ≤ -4.2 |
| C51A C95U A97U | -2.64 |
| C51U G86U A89U C114U | ≤ -4.2 |
| G50C C95A | -2.7 |
| C51A C75U A98U | -3.28 |
| A52C C85A A98C G133A G141U U146C | ≤ -4.2 |
| G50U C87G C103U G133C | ≤ -4.2 |

| Variant | polymerase ribozyme fitness (log ratio) |
| --- | --- |
| C51A A113G | ≤ -4.2 |
| A52C G65A U78A A91U U135C A138C U144G | ≤ -4.2 |
| C51U C87G U111A | ≤ -4.2 |
| C51U U55A C116U C131A G136U G143A | ≤ -4.2 |
| A52C C85A C93U C96G A121C U146C | ≤ -4.2 |
| G50C U78G C93A C116U C125U | ≤ -4.2 |
| C51U A60C U90C A122C | ≤ -4.2 |
| C51U A66C G74A U90G U111G | ≤ -4.2 |
| G50C U56A G59C | -3.03 |
| C51U C116G G140C | -4.07 |
| G50U C93G | -3.35 |
| C51U G84C C87A C95A A122C A137U G141C | ≤ -4.2 |
| A52C C69U C87U | ≤ -4.2 |
| C51G A64G A66G | ≤ -4.2 |
| C51A G74U A119U G133C U148A | ≤ -4.2 |
| C51U C57A C79A G88C C105G | ≤ -4.2 |
| A52C A60C | -2.71 |
| G50U C72G G86U A106U | ≤ -4.2 |
| G50U G74A C85U | -3.88 |
| G50C G152C | ≤ -4.2 |
| A52C G70A | -3.92 |

Source: the RNAGym collection of RNA variant scans (doi:10.1073/pnas.2313332121)
